Among all 45,000 compounds or so, about 65 (0.1%) were called active. The call rests on the fitted dose curve; in most records, active means well fitted activation curve with a large enough effect; inconclusive means small, poorly fitted or top-dose-only effect; inactive means no such curve, though single readings can be large or run the other way. The list shows a part of the results.
biological target: Galactocerebrosidase (Homo sapiens) (UniProt P54803); assay: A Novel Cell-Based Assay to Identify Small Molecules for B -Galactocerebrosidase; settings: 145M-Twi-hGALC-G270D cells (Twitcher mouse brain line with human GALC G270D), HMU-beta-Gal fluorescence, 48 h; activation: at the top concentration; further: 0% is about no effect; nearly all actives have a fitted effect of over 65% in size
UniProt P54803, sequence (P54803 whole entry, looked up): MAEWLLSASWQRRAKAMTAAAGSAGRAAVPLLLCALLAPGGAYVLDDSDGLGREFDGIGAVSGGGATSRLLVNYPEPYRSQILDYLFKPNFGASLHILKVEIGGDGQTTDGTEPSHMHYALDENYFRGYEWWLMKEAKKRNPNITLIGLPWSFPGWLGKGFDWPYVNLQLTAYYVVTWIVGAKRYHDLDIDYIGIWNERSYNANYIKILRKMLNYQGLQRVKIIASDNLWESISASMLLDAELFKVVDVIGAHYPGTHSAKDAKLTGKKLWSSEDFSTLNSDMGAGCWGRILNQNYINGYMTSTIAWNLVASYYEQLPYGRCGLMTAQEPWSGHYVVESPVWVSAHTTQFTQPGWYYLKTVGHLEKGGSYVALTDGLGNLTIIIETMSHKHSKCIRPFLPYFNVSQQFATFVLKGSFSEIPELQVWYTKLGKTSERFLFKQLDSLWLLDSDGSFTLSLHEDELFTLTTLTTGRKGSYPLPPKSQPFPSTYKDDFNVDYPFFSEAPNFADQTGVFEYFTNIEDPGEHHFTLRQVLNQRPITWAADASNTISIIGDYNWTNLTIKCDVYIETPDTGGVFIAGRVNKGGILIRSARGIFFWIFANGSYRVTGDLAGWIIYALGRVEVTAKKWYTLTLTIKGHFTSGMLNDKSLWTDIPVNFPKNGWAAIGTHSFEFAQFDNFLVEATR
Outline: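 Brain-derived Twitcher mouse 145M-Twi cells stably expressing human GALC-G270D or wild-type GALC, treated live, then residual GALC activity read by fluorescence of HMU-b-Gal substrate (0.1 mM final) in citrate-phosphate buffer pH 5.2 with sodium taurocholate. Signal increase indicates enhancement.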

SMILES | activation
CCCN(CCC)c1c([N+](=O)[O-])cc(S(N)(=O)=O)cc1[N+](=O)[O-] | inactive: -45.4% [at 114 µM]
O=C(COc1cccc(Cl)c1)N1CCN(CCc2ccncc2)CC1 | inactive: -2.9%
O=C(COc1ccccc1Cl)N1CCN(CCc2ccncc2)CC1 | inactive: 19.9%
N#Cc1cc2c(nc1SCC(=O)Nc1ccc(OC(F)(F)F)cc1)C1CCN2CC1 | inactive: -1.07%
CC(Cc1ccccc1)NCCCCl (stereo not given) | inactive: -4.6%
CCC(OC(C)=O)C(CC(C)NC)(c1ccccc1)c1ccccc1 (stereo not given) | inactive: 2.59% [at 129 µM]
CC(C)NCC(O)c1ccc(N)c(C#N)c1 (stereo not given) | inactive: -14.6%
CNCC(O)c1ccc(O)cc1 (stereo not given) | inactive: -14.4%
C[C@]12CCC(=O)C=C1CC[C@@H]1[C@@H]2CC[C@@]2(C)[C@H]1CC[C@]2(C)O | inactive: -14.1%
O=C(CCc1nc(C2=CCN(Cc3cccc(Cl)c3)CC2)no1)Nc1ccccc1F | inactive: -10%
COc1ccc(OCC(=O)N2CCN(Cc3cc(=O)n4nc(-c5ccccc5C)sc4n3)CC2)cc1 | inactive: 10.3%
CC(=O)NS(=O)(=O)c1ccc(NC(=O)c2cccn(Cc3ccc(Cl)cc3)c2=O)cc1 | inactive: -11.8%
O=c1c2ccccc2nc(/C=C\c2ccc(F)cc2)n1-c1ccccc1F | inactive: -3.75%
O=c1[nH]c2cc(Cl)ccc2n1C1CCNCC1 | inactive: -13%
Cc1cccc(NC(=O)Cn2cc(C(=O)c3ccccc3)c3ccccc32)c1 | inactive: 12.2%
CN(C)CCc1c[nH]c2cccc(OP(=O)(O)O)c12 | inactive: 5.9% [at 114 µM]
CCS(=O)(=O)C(C)(C)S(=O)(=O)CC | inactive: -13.3%
Cc1c(C(c2ccc(F)cc2)c2c(O)c3ccccc3oc2=O)c(=O)n(-c2ccccc2)n1C (stereo not given) | inactive: -15.5%
O=C(COc1ccc(Cl)cc1)Nc1ccc(Cl)cc1C(=O)c1ccccc1 | inactive: -6.87%
Nc1ccc([As](=O)(O)O)cc1 | inactive: -13.7%
Cc1nnc(NC(=O)c2cccn(Cc3ccccc3F)c2=O)s1 | inactive: -9.59%
S=C(SSC(=S)N1CCCCC1)N1CCCCC1 | inactive: -7.81%

SMILES | activation
O=C1CC(c2c(F)cccc2Cl)c2c(c3ccccc3oc2=O)O1 (stereo not given) | inactive: -13.8%
CCOP(=O)(NC(C)C)Oc1ccc(SC)c(C)c1 (stereo not given) | inactive: -10.8% [at 114 µM]
CCCCCCCCC(=O)NCc1ccc(O)c(OC)c1 | inactive: -10.4%
CCC12CN3CC(CC)(CN(C1)C3c1ccccn1)C2=O (stereo not given) | inactive: -9.98%
CC(=O)N1CC(=O)Nc2ccc(F)cc2C1c1ccccc1 (stereo not given) | inactive: -16.7%
O=S(=O)(O)C(F)(F)C(F)(F)C(F)(F)C(F)(F)F | inactive: -7.67% [at 129 µM]
Cc1cc(C)cc(-n2c(=O)[nH]c3ccccc3c2=O)c1 | inactive: -9.1%
Cc1ccc([N+](=O)[O-])[c]2c1[O][Hg]2 | inactive: 1.49%
COP(=S)(OC)Oc1cc(Cl)c(Cl)cc1Cl | inactive: -19.2%
CCCSc1nc2ccccc2c(=O)n1-c1ccccc1OC | inactive: -7.32%
O=C(O)c1ccc(=O)[nH]c1 | inactive: -11.1%
O=C1CC(c2ccc(Br)cc2)c2c(c3ccccc3oc2=O)O1 (stereo not given) | inactive: -5.99%
CC[N+]1(CC)CCC(OC(=O)C(O)(c2ccccc2)c2ccccc2)C1 (stereo not given) | inactive: -13.7%
O=C(Nc1ccon1)c1cccn(Cc2cccc(Cl)c2)c1=O | inactive: -24.3%
C=CCC1([C@H](C)CCC)C(=O)NC(=O)NC1=O | inactive: -10.7% [at 114 µM]
Cc1oc(-c2ccc(Cl)cc2)nc1CN1C(=O)CN=C(c2ccccc2)c2ccccc21 | inactive: 15.3%
Cc1cccc(NC(=O)Cn2cc(C(=O)c3ccccc3)c3ccccc32)c1C | inactive: -11.5%
O=c1[nH]c2ccccc2c(=O)n1-c1ccc(Cl)c(Cl)c1 | inactive: -20.5%
Cc1ccc(NC(=O)N(Cc2ccc3c(c2)OCO3)C2CCN(Cc3ccccc3)CC2)cc1F | inactive: 0.878%
C[C@@H]1O[C@@H](O[C@@H]2C=C3CC[C@@H]4[C@H](CC[C@]5(C)[C@@H](c6ccc(=O)oc6)CC[C@]45O)[C@@]3(C)CC2)[C@H](O)[C@H](O)[C@H]1O | inactive: -24.8%
C#CCN(C)[C@H](C)Cc1ccccc1 | inactive: -12.2%
O=C(Cn1c(=O)oc2cc(S(=O)(=O)N3CCCCCC3)ccc21)NCc1ccccc1Cl | inactive: -32.5%

SMILES | activation
O=C(Nc1ccc(Br)cc1)c1cc(Br)cc(Br)c1O | inactive: 3.9%
Cc1cc(C)cc(-n2c(/C=C/c3cccc(F)c3)nc3ccccc3c2=O)c1 | inactive: -16.6%
COc1ccc(NC(=O)CN2C(=O)C(C)N=C(c3ccccc3F)c3cc(Cl)ccc32)c(OC)c1 (stereo not given) | inactive: -10.6%
CC(=O)N1CCc2cc(S(=O)(=O)N3CCN(c4ccc(C)cc4)C(C)C3)ccc21 (stereo not given) | inactive: -35%
CC1COC2(c3ccccc3Cl)c3cc(Cl)ccc3NC(=O)CN12 (stereo not given) | inactive: -11.3%
O=C(Nc1ccccc1-c1ccc(Cl)cc1)c1cccnc1Cl | inactive: -15.6% [at 114 µM]
CCCCCCCCCCCC[N+](C)(C)CCOc1ccccc1 | inactive: -13.3%
Cc1nnc(NC(=O)c2cccn(Cc3ccc(Cl)cc3)c2=O)s1 | inactive: -10.8%
CC(C)NCC(O)c1ccccc1Cl (stereo not given) | inactive: -19.4%
CCC(C(N)=O)N1CCCC1=O (stereo not given) | inactive: -19.3%
COc1ccc2c(C(=O)c3ccc(Cl)cc3)c(C)n(CC(=O)O)c2c1 | inactive: -21.4%
C=CCOC(Cn1ccnc1)c1ccc(Cl)cc1Cl (stereo not given) | inactive: -13.6%
CC(=O)Nc1cc([As](=O)(O)O)ccc1O | inactive: -18.7%
COc1ccc(OC)c(NC(=O)Cn2cc(C(=O)c3ccccc3F)c3ccccc32)c1 | inactive: -7.83%
CCN(CCO)CCn1c(Cc2ccccc2)nc2c1c(=O)n(C)c(=O)n2C | inactive: -16.1%
ClC1=C(Cl)C2(Cl)C(CBr)CC1(Cl)C2(Cl)Cl (stereo not given) | inactive: -16.2%
Cc1ccc(-n2c(/C=C/c3ccc(Br)s3)nc3ccccc3c2=O)cc1C | inactive: -5.46%
CC(=O)[O][Hg][c]1ccccc1 | inactive: -21.5%
FC(F)(F)c1cccc(C2=CCN(CCc3ccc4ccccc4c3)CC2)c1 | inactive: -19.1%
C=CCN1CC[C@]23CCCC[C@H]2[C@H]1Cc1ccc(O)cc13 | inactive: -21%
CCOP(=S)(OCC)O/N=C(\C#N)c1ccccc1 | inactive: -16.8%
Cc1ccc(NC(=O)CN2C(=O)CN=C(c3ccccc3)c3ccccc32)c(C)c1 | inactive: -27.7%

SMILES | activation
O=C(c1ccc2c(c1)N(Cc1ccc(F)cc1Cl)C(=O)c1ccccc1S2)N1CCC2(CC1)OCCO2 | inactive: -8.96%
CC(=O)Nc1nnc(S(N)(=O)=O)s1 | inactive: -11.1%
Fc1ccc(N2CCN(c3ncnc4c3nc3n4CCCCC3)CC2)cc1 | inactive: 4.2%
C=CC(=O)NCNC(=O)C=C | inactive: -10.6% [at 114 µM]
CCCCc1nc2ccccc2c(=O)n1-c1cccc(OC)c1 | inactive: -14.2%
COc1nn(CSP(=S)(OC)OC)c(=O)s1 | inactive: -7.99% [at 114 µM]
CC(Cc1ccccc1)NCCn1cnc2c1c(=O)n(C)c(=O)n2C (stereo not given) | inactive: -10.5% [at 114 µM]
COc1cc(/C=C/c2nc3ccccc3c(=O)n2-c2ccc(Br)c(C)c2)ccc1O | inactive: -19.9%
Nc1c(C(=O)Nc2ccc(OC(F)(F)F)cc2)sc2nc3c(cc12)N1CCC3CC1 | inactive: -27%
N[C@@H]1C[C@H]1c1ccccc1 | inactive: -10.6%
CC(C)NCC(O)c1ccc([N+](=O)[O-])cc1 (stereo not given) | inactive: -1.06%
COc1ccc(-c2cc3nc(C)c(CCC(=O)N4CCN(c5cc(C)ccc5C)CC4)c(C)n3n2)c(OC)c1 | inactive: -32.4%
CCC1(c2ccccc2)C(=O)N(COC)C(=O)N(COC)C1=O | inactive: -14.2%
O=C(Nc1ccc2c(c1)OCCO2)c1cccn(Cc2cccc([N+](=O)[O-])c2)c1=O | inactive: -19.4%
O=C(CCl)c1ccc(Cl)cc1Cl | inactive: -16.9%
C#C[C@]1(O)CC[C@H]2[C@@H]3CCC4=CC(=O)CCC4=C3C=C[C@@]21CC | inactive: -16.1%
CCN(CC)C(=O)N[C@@H]1C=C2c3cccc4[nH]cc(c34)C[C@@H]2N(C)C1 | inactive: -5.72%
N#Cc1cc([N+](=O)[O-])ccc1NC(=O)c1cccn(Cc2cccc(F)c2)c1=O | inactive: -10.3%
NC1=NC(=O)C(c2ccccc2)O1 (stereo not given) | inactive: -7.19%
CCOC(=O)C1(c2ccccc2)CCN(CCC(C#N)(c2ccccc2)c2ccccc2)CC1 | inactive: -22%
CN(C)CCc1ccc(O)cc1 | inactive: -9.39%
CN1CCN(c2csc3ccc(F)cc3c2=O)CC1 | inactive: -2.47%

SMILES | activation
CC(=O)[C@H]1CC[C@H]2[C@@H]3CC[C@H]4C[C@](C)(O)CC[C@]4(C)[C@H]3CC[C@]12C | inactive: -12.7%
CSc1ccc(C(c2c(O)c3ccccc3oc2=O)c2c(C)n(C)n(-c3ccccc3)c2=O)cc1 (stereo not given) | inactive: -1.73%
CCOC(=O)c1c(C)[nH]c(C)c1S(=O)(=O)NCC(=O)N1CCN(c2cc(Cl)ccc2C)CC1 | inactive: -30.9%
ClCCCN1CCN(c2cccc(Cl)c2)CC1 | inactive: -14.8%
N#Cc1cc2c(nc1SCC(=O)Nc1cccc(F)c1)C1CCN2CC1 | inactive: -3.97%
CCOc1ccc(-n2c(/C=C/c3ccccc3)nc3ccccc3c2=O)cc1 | inactive: -10.3%
O=[N+]([O-])c1cc([N+](=O)[O-])c2ccccc2c1 | inactive: -8.96% [at 114 µM]
CN1CC[C@]23c4c5ccc(O)c4O[C@H]2[C@@H](O)C=C[C@H]3[C@H]1C5 | inactive: -4.87% [at 114 µM]
CCCN(CCC)CCc1c[nH]c2ccccc12 | inactive: -10.5% [at 114 µM]
CC(C)=C[C@@H]1[C@@H](C(=O)OCc2coc(Cc3ccccc3)c2)C1(C)C | inactive: -11%
CCC(CC)(CNC(=O)CCCO)c1cccc(OC)c1 | inactive: -6.51%
O=C1OC(c2ccc(O)c(S(=O)(=O)O)c2)(c2ccc(O)c(S(=O)(=O)O)c2)c2c(Br)c(Br)c(Br)c(Br)c21 | inactive: -14.2%
NCC(CC(=O)O)c1ccc(Cl)cc1 (stereo not given) | inactive: -14.7% [at 0.46 µM]
CCOC(=O)CC(SP(=S)(OC)OC)C(=O)OCC (stereo not given) | inactive
CC1(C)OC[C@@H](COC(=O)CCc2ccc(OC[C@@H](O)CNCCNC(=O)N3CCOCC3)cc2)O1 | inactive: -13.5%
O=C(Nc1ccc2c(c1)OCO2)c1cccn(Cc2ccc(F)cc2)c1=O | inactive: -19.3%
Cn1c(=O)n(C)c2cc(CNCCc3ccccc3)ccc21 | inactive: -15.4%
Cc1ccccc1Cn1cccc(C(=O)Nc2cc(Cl)ccc2C#N)c1=O | inactive: -17.2%
CN(C)[C@@H]1C(=O)C(C(N)=O)=C(O)[C@@]2(O)C(=O)C3=C(O)c4c(O)cccc4[C@@](C)(O)[C@H]3C[C@@H]12 | inactive: -11%
NCc1cccnc1 | inactive: -12.4%
Cc1cc(NC(=O)c2cccn(Cc3cccc([N+](=O)[O-])c3)c2=O)no1 | inactive: -21.8%
CCOc1ccc2nc(NC(=O)c3cccn(Cc4ccccc4C)c3=O)sc2c1 | inactive: -14%

From PubChem BioAssay AID1159614 (National Center for Advancing Translational Sciences (NCATS), 2016)
